In PMC6919601, “Identification of Plasmodium dipeptidyl aminopeptidase allosteric inhibitors by high throughput screening” (PLoS ONE, 2019):
The whole screen tested about 110,000 compounds, of which about 230 (0.21%) showed an effect of 50% or more. The list shows a part of the results.

Target: DPAP1 (Plasmodium falciparum, UniProt Q8IIJ9)
Assay: primary screen, percent inhibition; read by cleavage of a fluorogenic dipeptide substrate; higher = more effect of the substance
Set-up: species or system P. falciparum D10 trophozoite lysates; single well
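Also: 30 min substrate incubation versus DMSO and 10 µM JCP410 controls.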

Chain of DPAP1 (Q8IIJ9 whole entry, looked up): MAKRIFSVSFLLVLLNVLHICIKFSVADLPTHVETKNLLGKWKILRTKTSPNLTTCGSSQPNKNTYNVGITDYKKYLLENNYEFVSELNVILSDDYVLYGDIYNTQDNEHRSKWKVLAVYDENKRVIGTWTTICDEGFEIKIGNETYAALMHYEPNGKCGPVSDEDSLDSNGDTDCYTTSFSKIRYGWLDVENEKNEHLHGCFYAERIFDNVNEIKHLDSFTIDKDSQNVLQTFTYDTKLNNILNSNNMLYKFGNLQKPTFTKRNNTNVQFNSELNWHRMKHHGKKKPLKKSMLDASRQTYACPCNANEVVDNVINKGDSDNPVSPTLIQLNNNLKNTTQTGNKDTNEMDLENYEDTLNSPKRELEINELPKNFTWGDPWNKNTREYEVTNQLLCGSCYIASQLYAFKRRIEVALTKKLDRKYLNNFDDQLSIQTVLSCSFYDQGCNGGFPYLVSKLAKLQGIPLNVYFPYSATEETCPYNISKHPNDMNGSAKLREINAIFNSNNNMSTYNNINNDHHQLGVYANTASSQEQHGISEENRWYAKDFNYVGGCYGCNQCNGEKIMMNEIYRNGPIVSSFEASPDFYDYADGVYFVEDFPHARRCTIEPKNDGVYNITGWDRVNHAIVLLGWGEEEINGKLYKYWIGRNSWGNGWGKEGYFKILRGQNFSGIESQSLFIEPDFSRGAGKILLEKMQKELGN

Row | SMILES | % Inhibition @ 10 uM [%]
1 | O=C(COc1ccccc1)Nc1ccc(Br)c(Cl)c1 | -8.68
2 | CCN(Cc1ccccc1)C(=O)CCc1nc(-c2ccc(OC)cc2)no1 | 18.2
3 | Cc1ccc(S(=O)(=O)Nc2nc[nH]n2)cc1 | -10.3
4 | COc1cc(C2C(C#N)=C(N)Oc3[nH]nc(C)c32)cc(Cl)c1OCc1cccc(F)c1 (stereo not shown) | 0.658
5 | Cc1ccc(C(CC(=O)NCc2ccco2)c2ccccc2)c(O)c1C (stereo not shown) | -12.4
6 | CCc1nn2c(=O)c(S(=O)(=O)NCc3ccc(F)cc3)c(C)nc2s1 | 0.91
7 | OC12CCCCC1C(c1ccc(F)c(F)c1)NCC2 (stereo not shown) | -0.13
8 | Cc1ccc(-c2noc(-c3nnn(-c4cc(C)ccc4C)c3N)n2)cc1 | 4.98
9 | Cn1c2ccccc2c2c(C(=O)NCc3ccco3)cn(C3CCCCC3)c(=O)c21 | -3.39
10 | Cc1cccc(Cn2c(NCCCn3ccnc3)nc3c2c(=O)[nH]c(=O)n3C)c1 | 3.59
11 | COc1ccc(S(=O)(=O)NCC2CCC(C(=O)NC3CCCCCCC3)CC2)cc1 (stereo not shown) | -4.53
12 | O=C(Nc1ccc(Br)cc1F)C1CC(=O)N(c2ccc(F)cc2)C1 (stereo not shown) | 5.26
13 | Fc1ccccc1C1C=C(c2ccccc2)Nc2ncnn21 (stereo not shown) | 2.4
14 | Cc1cc(S(=O)(=O)N2CC=C(c3c(C)n(CC(=O)N4CCCC4)c4ccccc34)CC2)ccc1F | 5.53
15 | CCOc1ccccc1-n1nnc(-c2nc(-c3ccncc3)no2)c1N | 1.66
16 | Cc1c2cnn(CC(=O)NCCN3CCCC3)c(=O)c2c(C)n1Cc1ccc(Cl)cc1 | -0.447
17 | C=C(C)CC1NC2CC(C)(C)C1c1ccccc12 (stereo not shown) | -1.44
18 | Cc1ccc(NC(=O)Nc2sc(NS(=O)(=O)c3ccccc3)nc2C)cc1 | -3.78
19 | O=C(NCc1nc2nc(-c3ccccc3)cc(C(F)(F)F)n2n1)c1ccccc1 | 2.84
20 | COc1ccc(CNC(=O)c2cc3c(=O)n4ccccc4nc3n2C)cc1 | 3.56
21 | CC12C=CC(O1)C1C(=O)N(c3ccc(F)c(Cl)c3)C(=O)C12 (stereo not shown) | 0.189
22 | COCc1cc(C)nc2sc3c(c12)N(C(C)=O)C(c1ccc(F)cc1)NC3=O (stereo not shown) | 1.03
23 | COC(=O)c1ccc2c(c1)Cc1c(O)nc(-c3ccccc3)nc1O2 | -1.06
24 | NC(=O)c1ccc(NC(=O)Cn2cnc3ccccc3c2=O)cc1 | -3.05
25 | COc1ccc(Cn2c(C(=O)O)c(CNCCc3ccc(Cl)cc3)c3ccc(OC)cc32)cc1 | 2.86

Row | SMILES | % Inhibition @ 10 uM [%]
26 | CCCc1cc(C(=O)NC(C)C23CC4CC(CC(C4)C2)C3)n(C)n1 (stereo not shown) | -0.92
27 | Oc1ccc(NCc2ccc(Cl)cc2Cl)cc1 | -0.366
28 | CC(C)c1ccc(NC(=O)/C=C/c2cccc([N+](=O)[O-])c2)cc1 | -1.92
29 | NC(=O)c1cccc(NC(=O)/C=C/C(=O)O)c1 | 0.634
30 | COc1ccc(C2C(C#N)=C(N)Oc3[nH]nc(C)c32)cc1OC (stereo not shown) | 1.01
31 | CCOC(=O)N1CCC(NC(=O)c2oc3ccc4c(c3c2C)C(O)CC(C)(C)O4)CC1 (stereo not shown) | 1.63
32 | CCOC(=O)C1=C(C)NC(=O)NC1c1cn(-c2ccccc2)nc1-c1ccc(Cl)cc1 (stereo not shown) | 3.95
33 | COc1cc(OC)c(OC)cc1/C=N/c1sc2c(c1C#N)CCCC2 | 1.25
34 | COCCCNC(=O)c1cc(Sc2ccccc2C(F)(F)F)nc2ccccc12 | -1.79
35 | O=C1c2ccccc2C(=O)N1CN1CCC(Cc2ccccc2)CC1 | -5.6
36 | CC1CC(C)CN(C(=O)c2ccc3c(Cl)c4c(nc3c2)CCC4)C1 (stereo not shown) | 1.15
37 | NCCc1c(C(=O)O)[nH]c2ccc(S(N)(=O)=O)cc12 | 4.93
38 | CCCNS(=O)(=O)c1ccc2c(c1)nc1n2CCC1 | 15.3
39 | COc1cccc(/C(O)=C/c2nc3ncc(Br)cc3nc2O)c1 | 0.166
40 | N#C/C(=C/c1cccc(F)c1)C(=O)NCCc1ccccc1 | -9.56
41 | COc1cc(/C=C(\C#N)c2nc3ccccc3[nH]2)ccc1OCc1cc(=O)n2nc(C)sc2n1 | -2.19
42 | Cc1cc(Cl)ccc1OCC(=O)Nc1ccc(CN2CCOCC2)cc1 | -4.91
43 | Cc1nn(-c2ccccc2)c2c1C(c1c(C)[nH]c(C#N)c1C)C(C#N)=C(N)O2 (stereo not shown) | 0.503
44 | CSc1ccc(C2CC(=O)Nc3c2c(=O)n(C)c(=O)n3C)cc1 (stereo not shown) | -7.51
45 | CCC(CC)C(=O)Nc1ccccc1C(=O)OC | -5.06
46 | O=C(Nc1cccc(Cl)c1)c1ccccc1NC(=O)C1CCCCC1C(=O)O (stereo not shown) | -0.95
47 | COc1ccc(C2=NS(=O)(=O)N(C)C(C(=O)NCc3ccc(F)cc3)=C2)cc1OC | 5.48
48 | Cc1ccc(C)c(S(=O)(=O)c2nnn3c2nc(NCC2CCCO2)c2sccc23)c1 (stereo not shown) | -4.34
49 | Cc1ccc(C(=O)Nc2ccccc2C(F)(F)F)cc1 | -9.9
50 | CC1C2CC(C(C3C(=O)C4CC3C(C)(C)C4C)C2=O)C1(C)C (stereo not shown) | -4.26

Row | SMILES | % Inhibition @ 10 uM [%]
51 | COCCc1c(C)c(C#N)c2n(C)c3ccccc3n2c1=O | -2.24
52 | CC1CCN(c2nc3ccc(C(=O)NC4CCN(Cc5ccccc5)CC4)cc3s2)CC1 | 12.6
53 | Cc1cc(C(=O)NCCCN2CCc3ccccc3C2)n(-c2ccccc2)n1 | -7.53
54 | Cc1ccc2nc(N(CCCN(C)C)C(=O)c3ccccc3)sc2c1 | -9
55 | COc1ccc(C2C3CCc4ccc(OC)cc4C3=NN2/C(C)=C/C(C)=O)cc1 (stereo not shown) | 22.9
56 | Cc1nn(Cc2ccccc2Cl)c(C)c1NC(=O)c1ccn(C)n1 | 2.65
57 | CCc1nc2c(cnn2-c2ccc(Cl)cc2)c(=O)n1Cc1ccccc1 | 1.9
58 | COc1ccc(C(=O)Cc2cc3cccc(OC)c3oc2=O)cc1 | -1.06
59 | CC(NC(=O)c1ccccc1NS(=O)(=O)c1ccc(Br)s1)c1ccccc1 (stereo not shown) | -4.63
60 | C=C(C)CNC(=S)Nc1sc2c(c1C(=O)OCC)CC(C)(C)OC2 | 7.76
61 | Nc1n[nH]c(-c2ccco2)n1 | 0.675
62 | CCOC(=O)/C(C#N)=C/c1c(Oc2cc(C)cc(C)c2)nc2ccccn2c1=O | -1.43
63 | C=CCn1c(SCC(=O)N2CCc3ccccc3C2)nc2ccccc2c1=O | -0.519
64 | CCN(CC)S(=O)(=O)c1ccc(Cl)c(C(=O)Nc2sc3c(c2C#N)CCCC3)c1 | 2.92
65 | O=C(NCc1ccncc1)c1ccc(Br)o1 | -1.54
66 | CCOc1ccc2ccccc2c1/C=C1\NC(=O)N(Cc2ccc(Cl)cc2)C1=O | 0.487
67 | Cc1ccc(-c2c(O)c(=O)/c2=N\CCCN2CCCC(C)C2)cc1 (stereo not shown) | 0.867
68 | Cn1c(C(=O)O)c(S(=O)(=O)c2ccc(Cl)cc2)c2ccccc21 | 4.79
69 | CCC[C@H](N[C@H](C(=O)NCc1ccccn1)c1ccc(-c2ccc(S(C)(=O)=O)cc2)cc1)C(=O)NC1(C#N)CC1 | 1.7
70 | CCCCCC1(C)C(C#N)(C(=O)OC)C1(C#N)C(=O)OC (stereo not shown) | -4.06
71 | CC1(C)CC(=O)C(c2c[nH]c3ccccc23)C(=O)C1 | 6.8
72 | CN1C(=O)N(C)C2CC1N(C)C(=O)N2C | 2.26
73 | Cc1cccnc1NC(=O)Cn1nc(Cc2ccncc2)c2ccccc2c1=O | 7.96
74 | COc1ccc(-c2nc(-c3cc4cc(C)ccc4nc3OC)no2)cc1OC | 2.62
75 | CN(C)/C=C1\C(=O)N/C(=C/c2ccc(Br)cc2)C1=O | 34.8

Row | SMILES | % Inhibition @ 10 uM [%]
76 | COc1ccc(CCNc2nc(Cl)nc(NC(C)(C)CO)n2)cc1OC | -2.14
77 | CCOC(=O)c1cnc(NCc2ccccc2)nc1C | -3.75
78 | COc1ccccc1C1=NOC(C(=O)N2CCCCCC2)C1 (stereo not shown) | 1.62
79 | Cc1ccc(/C=C2/NC(=O)NC2=O)cc1 | -0.178
80 | CC1C(c2ccccc2)=[N+]([O-])C(C)(C)N1O (stereo not shown) | -3.41
81 | Cc1ccccc1OCC(=O)N(Cc1nc(-c2ccc(Cl)cc2)no1)C(C)C | 3.6
82 | O=C(O)CSc1nc2ccc(Br)cc2o1 | 2.35
83 | COC(=O)c1ccc(-c2ccc(C(=O)OC)cc2)cc1 | 2.79
84 | COc1ccc(OC)c(C(=O)c2c(N)c(-c3nc(-c4ccc5c(c4)OCO5)cs3)c3ccccn23)c1 | 2.62
85 | Cc1cc2nc3c(nc2cc1C)C1(C(=O)N(C)C)CCC3(C)C1(C)C (stereo not shown) | -1.55
86 | Cc1cc2ncn(Cc3ccccc3C)c2cc1C | -0.551
87 | O=[N+]([O-])c1ccc(S(=O)(=O)c2nc3ccccc3s2)c(Cl)c1 | 1.9
88 | O=C(Nc1ccccc1F)c1cccc(Cl)c1 | -5.2
89 | COc1ccc(-c2onc(C)c2C)cc1S(=O)(=O)N1CCOCC1 | 4.85
90 | CCOc1ccc(NS(=O)(=O)c2ccc(NC(=O)c3cccc(C)c3)cc2)cc1 | 5.09
91 | CC(C)=CCC/C(C)=C/CN(C)CCc1ccccn1 | 0.0792
92 | CC1CCc2c(sc3ncn(CC(N)=O)c(=O)c23)C1 (stereo not shown) | 0.674
93 | Cc1cccc(NC(=O)COc2ccccc2C)n1 | -4.12
94 | CC(=O)N1N=C(c2cc(Cl)ccc2Cl)CC1c1ccccc1 (stereo not shown) | 5.07
95 | CCc1cccc2c(C(=O)C(F)(F)F)cn(CC(=O)NCc3ccc4c(c3)OCO4)c12 | -6.7
96 | CCOCCCNC(=O)c1cc2c(O)nc3ccc(C)cc3c2s1 | 5.92
97 | CCOc1ccccc1C(=O)NCc1ccc(F)cc1 | -0.132
98 | Cc1c(CCC#N)c2ccccc2n1C | 0.00178
99 | CC1CCCCN1C(=O)c1cc([N+](=O)[O-])cc([N+](=O)[O-])c1 (stereo not shown) | 0.526
100 | CCN1C(=O)N/C(=C/c2cn(Cc3ccccc3)c3ccccc23)C1=O | 3.63
